Assay results reported in PubChem BioAssay AID1508624 (National Center for Advancing Translational Sciences (NCATS), 2021).
Hit rate of the full screen: of about 48,000 compounds, about 120 (0.25%) were called active. Roughly 4% stayed inconclusive and do not appear here. Calls follow the shape of the dose curve; as a rule, active = well fitted activation curve with a large enough effect; inconclusive = small, poorly fitted or top-dose-only effect, or another doubt; inactive = no such curve, though single readings can be large or run the other way. The list shows a part of the results, in another mix than the full data. The source gives no active or inactive call for entries shown without one.

test: Primary qHTS for Identification of Small Molecule Activators of Huntingtin-Antisense Promoter Activity; details: HEK293 HTT-AS promoter firefly luciferase reporter, 24 h; activity change, positive = activation: at 57.5 µM (top of the series), percent change from vehicle, -100% = no light; also: nearly all actives have a fitted effect of over 55% in size
Summary of the method: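 HEK293 cells carrying firefly luciferase reporters were seeded at 2,500 per well in Opti-MEM and cultured for 24 h. They were then treated with compounds at up to 57.5 uM final for 24 h at 37 degrees C before Dual-Glo luminescence readout.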

| SMILES | activity change, positive = activation |
| --- | --- |
| Cc1ccc(OCc2nnc(-c3ccccc3)o2)cc1 | 44.5% |
| CC(=O)Nc1ccc(Nc2nc3ccc(C)cc3n3nnnc23)cc1 | 15.1% |
| Cc1ccc(C)c(OCCCn2c(-c3ccc(Cl)cc3)nc3ccccc3c2=O)c1 | 0.84% |
| CCC1CCc2c(sc(NC(=O)C3c4ccccc4Oc4ccccc43)c2C#N)C1 (configuration not stated) | -22.8% |
| CCC(C)NC(=O)c1ccccc1NC(=O)C1CCN(S(=O)(=O)Cc2ccccc2)CC1 (configuration not stated) | -4.3% |
| CC(=O)Nc1ccc(NC(=O)Nc2sc3nc4n(c(=O)c3c2C)CCC(C)CC4)cc1 (configuration not stated) | -9.98% |
| COc1ccc(OC)c(NC(=O)c2ccc(-c3nc(COc4ccccc4)c(C)o3)cc2)c1 | -15.9% |
| Cc1ccc(C(C)C)c(OCCSc2nc(-c3cccs3)nc3cc(=O)[nH]n23)c1 | -1.58% |
| COc1ccc(N2CCN(C(=O)c3cc4c(=O)n(Cc5cccs5)ccc4nc3C)CC2)cc1 | -15.6% |
| CCOc1ccc(CNCc2c(C(=O)O)c(C)n(Cc3c(F)cccc3Cl)c2C)cc1OC | inactive: -15.8% |
| CC(C)c1ccc(S(=O)(=O)N2CCC(N3CCN(Cc4ccccc4)C(=O)C3=O)CC2)cc1 | -2.81% |
| COc1ccc(C2=C(Nc3ccc(C)cc3C)c3ccccc3C2=O)cc1 | -21.4% |
| CCCc1cc(=O)[nH]c(Nc2cc(C)cc(C)c2)n1 | -24.5% |
| COc1ccc(NC(=O)CCCn2c(=O)c3cccn3c3cccnc32)cc1Cl | inactive: -15.9% |
| Cc1ccc(NC(=O)c2cc3ccccn3n2)cc1F | 49.7% |
| COc1ccc(NC2=C(c3ccccc3)C(=O)c3ccccc32)cc1Cl | -24.3% |
| COc1ccc(CNC(=O)c2cc3ccccn3n2)cc1OC | -4.55% |
| Cc1ccc(NC(=O)/C=C\C(=O)N(c2ccc(C(C)C)cc2)C(C(=O)NCc2ccco2)c2ccc(F)cc2)cc1 (configuration not stated) | -45.2% |
| CC(=O)c1ccc(S(=O)(=O)Nc2ccc(-c3ccc(N4CCCCC4)nn3)cc2)cc1 | 30.4% |
| CCOc1ccc(S(=O)(=O)Nc2cccc(-c3ccc(N4CCCC4)nn3)c2)cc1 | 2.41% |
| CCC1CCCCN1Cc1c(O)ccc2c(=O)c(Oc3ccccc3Cl)c(C(F)(F)F)oc12 (configuration not stated) | -25.4% |
| Cc1oc2ncn(CC(C)C)c(=O)c2c1C(=O)NCCc1ccc(Cl)cc1 | inactive: -14.6% |
| Cc1ccc(NC(=O)CSc2nnc(COc3ccc(Cl)cc3)o2)cc1 | -8.1% |
| CCCCN1C(=O)CN(C2CCCCCC2)C(=O)C1c1ccc(OCC)c(OC)c1 (configuration not stated) | -9.83% |
| Cc1ccc(-c2nnc(Nc3cccc(Br)c3)c3ccccc23)cc1S(=O)(=O)N1CCCCC1 | -9.43% |
| CCOc1ccc(C2C(=O)N(C3CCCCC3)CC(=O)N2Cc2ccccc2OC)cc1OC (configuration not stated) | -18.4% |
| O=C(Nc1ccc(Oc2ccccc2)cc1)c1ccc(F)c(S(=O)(=O)N2CCN(c3cccc(Cl)c3)CC2)c1 | inactive: -43.8% |
